Results reported in PubChem BioAssay AID1159614 (National Center for Advancing Translational Sciences (NCATS), 2016).
Out of some 45,000 compounds screened, about 65 (0.1%) were called active. Calls follow the shape of the dose curve; as a rule, active = well fitted activation curve with a large enough effect; inconclusive = small, poorly fitted or top-dose-only effect; inactive = no such curve, though single readings can be large or run the other way. The list shows a part of the results.

target: Galactocerebrosidase (Homo sapiens) (UniProt P54803); experiment: A Novel Cell-Based Assay to Identify Small Molecules for B -Galactocerebrosidase; conditions: 145M-Twi-hGALC-G270D cells, HMU-beta-Gal fluorescence, 48 h; series mostly up to 57.5 µM; activation: at the top concentration; also: 0% is about no effect; nearly all actives have a fitted effect of over 65% in size
Sequence of UniProt P54803 (P54803 whole entry, looked up): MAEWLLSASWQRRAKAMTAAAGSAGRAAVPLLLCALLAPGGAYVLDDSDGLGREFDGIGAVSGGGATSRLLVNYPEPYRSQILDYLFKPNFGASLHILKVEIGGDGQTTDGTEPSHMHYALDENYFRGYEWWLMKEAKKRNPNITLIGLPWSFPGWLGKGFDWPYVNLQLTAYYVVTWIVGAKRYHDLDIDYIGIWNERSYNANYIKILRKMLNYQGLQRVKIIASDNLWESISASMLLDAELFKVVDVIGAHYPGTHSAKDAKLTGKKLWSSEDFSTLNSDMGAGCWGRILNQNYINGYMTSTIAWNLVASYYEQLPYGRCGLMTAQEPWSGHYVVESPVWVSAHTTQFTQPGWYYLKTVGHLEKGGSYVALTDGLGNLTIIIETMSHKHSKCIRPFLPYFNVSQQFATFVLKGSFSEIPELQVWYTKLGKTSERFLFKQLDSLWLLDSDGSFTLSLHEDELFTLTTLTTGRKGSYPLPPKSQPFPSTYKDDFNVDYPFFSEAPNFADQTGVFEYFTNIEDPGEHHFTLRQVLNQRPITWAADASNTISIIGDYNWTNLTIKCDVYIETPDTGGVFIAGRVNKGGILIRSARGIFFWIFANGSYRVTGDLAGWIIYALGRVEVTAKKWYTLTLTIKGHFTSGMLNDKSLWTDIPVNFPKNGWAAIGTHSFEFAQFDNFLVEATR
Procedure, shortened: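 qHTS, 1536-well; 145M-Twi-hGALC-G270D cells (WT line also made) in DMEM/F12 + 10% FBS; compound incubation on live cells; HMU-β-gal 0.1 mM final, pH 5.2, NaTC; carbonate stop; fluorescence increase = enhanced residual activity.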

activation, inactive:
Cc1cccc(Cn2cc(S(=O)(=O)c3ccccc3)c(=O)c3cc(F)c(N4CCOCC4)cc32)c1 -6.84%
Cc1cccc(C)c1NC(=O)C1CCCN1S(=O)(=O)c1ccccc1 (stereo not drawn) -17.6%
CC1=C(C/C=C(\C)CCC[C@H](C)CCC[C@H](C)CCCC(C)C)C(=O)c2ccccc2C1=O -9.08%
CC(=O)N1c2ccc(S(=O)(=O)N3CCC(C(=O)Nc4cccc(Cl)c4C)CC3)cc2CC1C (stereo not drawn) -16.1%
COc1ccc(N2CCN(CCCNC(=O)c3nnc(Cc4ccc(F)cc4)o3)CC2)cc1 -12.2%
Cc1ccccc1OC(=O)c1nc(SCc2ccccc2F)ncc1Cl -9.88%
CN(C)c1ccc(CNC(=O)Cc2ccc(NC(=O)N3CCCCc4ccccc43)cc2)cc1 -17.2%
O=C(OCCOCCO)c1ccccc1Nc1cccc(C(F)(F)F)c1 -5.42%
CCc1ccc2ncc3c(-c4ccc(F)cc4)nn(CC(=O)NC4CCCCC4)c3c2c1 -23.7%
Cc1ccc2c(CC(=O)Nc3ccc(S(=O)(=O)N4CCCCC4C)cc3)coc2c1C (stereo not drawn) -18%
CCOC(=O)Cn1c(=O)n(-c2cccc(Cl)c2)c2nc(-c3ccccc3Cl)nc(C(N)=O)c21 -29.4%
O=C(CC1NCCNC1=O)Nc1ccc(F)c(Cl)c1 (stereo not drawn) -11.1%
NS(=O)(=O)c1cc2c(cc1Cl)NC(CC1CCCC1)NS2(=O)=O (stereo not drawn) -7.85%
O=C(CSc1nnc(CNC(=O)c2ccccc2)n1-c1ccc(F)cc1)Nc1ccccc1F -8.47%
Cc1cc(NC(=O)c2oc3c(c2C)-c2[nH]ncc2CC3)ccc1Br 29.4%
Cc1nn(-c2ccc(F)cc2)c(-n2cccc2)c1C(=O)N1CCCCC1C (stereo not drawn) 13.5%
Cc1cc(=O)n2nc(N3CCC(C(=O)NCCCOC(C)C)CC3)sc2n1 -2.28%
CCC(C(=O)Nc1cc(-c2cn3cccnc3n2)ccc1C)c1ccccc1 (stereo not drawn) -1.13%
CCOCCCn1c(SCC(=O)Nc2ccc(F)cc2)nc2c(sc3ccccc32)c1=O 1.69%
COc1ccccc1N1CCN(S(=O)(=O)c2ccc3c(c2)CCCN3C(C)=O)CC1 -15.1%
CCCCOc1ccc(C(=O)Nc2sc3c(c2C(=O)OCC)CCCCC3)cc1 13.4%
COc1ccc(Nc2ncc(C(=O)Nc3ccc(F)cc3F)c3ccccc23)cc1 -16.1%
Nc1nc2nc(-c3ccccc3)cc(=O)n2[nH]1 -5.44%
Cc1ccccc1CNC(=O)CN1CCSc2ccccc21 -17.9%
CC(C)(C)NCC(O)c1cc(O)cc(O)c1 (stereo not drawn) -9.05%
CCc1ccccc1-n1c(SCC(=O)Nc2ccc(C)cc2)nc2n[nH]c(C)c2c1=N -7.65%
CCc1cccc(NC(=O)Cn2c(-c3ccc(F)cc3)cc(C(C)=O)c2C)c1 2.9%
O=C(c1ccc2c(c1)N(Cc1ccccc1Cl)C(=O)c1ccccc1S2)N1CCCC1 -8.37%
